As a reminder, the % Inhibition is the relative decrease from the control value, in per cent.

Among all 150,000 compounds or so, about 540 (0.36%) showed an effect of 50% or more. Some of the results follow.

This assay relates to Plasmodium falciparum. The assay can be described thus: Primary screen in NF54 nanoGlo assay, in single point, at 2uM, 72h; a lower Z score goes with more inhibition. Type of assay: functional, Erythrocyte. The settings on record: timepoint 72 hour.
As for `O=C(c1cnc(Cc2ccccc2)s1)N1CCOC[C@@H]1CCO`, the “% Inhibition” value is -7% and the Z score was 0.92.

For `O=C1CC[C@H](N2CCOCC2)CCN1Cc1cccc(C(F)(F)F)c1`, the “% Inhibition” value is -6% and the Z score is 0.69.

As for `Cc1cc(C)cc(OCCCNCCO)c1`, the “% Inhibition” value is on record as -16% and the Z score was found to be 2.12.

On to `C[C@@H](Cc1ccncc1)NC(=O)c1c[nH]c(=O)[nH]c1=O`, for which the “% Inhibition” value is -9% and the Z score is recorded as 0.89.

In the case of `O=S(=O)(NCc1ccncc1OC[C@H]1CCOC1)c1ccc2[nH]nnc2c1`, the “% Inhibition” value is given as -9% and the Z score was 1.34.

As for `c1csc(-c2nc(-c3ccc4c(c3)OCO4)no2)c1`, the “% Inhibition” value is given as -5% and the Z score is on record as 0.97.

Take `Cc1nc(O)cc([C@H]2CCCN(C(=O)C3(c4ccccc4)CCCC3)C2)n1`: the “% Inhibition” value is -3% and the Z score was 0.39.

Regarding `CCOc1ccccc1C(=O)NCc1ccnc(-c2cnn(C)c2)c1`, the “% Inhibition” value was -10% and the Z score worked out at 1.59.

For `CO[C@@]12CC[C@@H](OCC3CC3)C[C@@H]1N(c1ncnc(C)c1C)CC2`, the “% Inhibition” value is given as -10% and the Z score came to 1.75.

Take `Cc1noc(C)c1CNC1CCN(C(=O)c2cccs2)CC1`: the “% Inhibition” value is listed as -1% and the Z score came out at 0.29.

For `COC(=O)[C@H](C#N)c1ccc(C#N)cn1`, the “% Inhibition” value is reported as 34% and the Z score is on record as -0.65.

Turning to `CC(C)CCNC(=O)c1ccc2c(c1)nc1n2CC[C@H](C)C1`, the “% Inhibition” value is recorded as -8% and the Z score is listed as 1.11.

Regarding `Cn1cnc2c1CCN(Cc1cnn(-c3ccccc3)n1)C2`, the “% Inhibition” value is listed as -4% and the Z score turned out to be 0.58.

Consider `O=C(N[C@H]1CC[C@H](Nc2ccccn2)CC1)c1ccc(=O)[nH]n1`, for which the “% Inhibition” value is on record as -1% and the Z score turned out to be 0.21.

Consider `O=C([C@H](O)C1CCCCC1)N1CCc2[nH]c(-c3ccccc3)nc2C1`, for which the “% Inhibition” value is on record as -1% and the Z score came out at 0.13.

Regarding `O=S(=O)(c1cccc2nsnc12)N1CC(c2nc(CCOCC3CC3)no2)C1`, the “% Inhibition” value is reported as -15% and the Z score is 1.88.

Consider `CC(C)CN(C(=O)CC1CC2CCC1C2)C1CC1` (stereo unspecified), for which the “% Inhibition” value is listed as -17% and the Z score amounted to 1.78.

Turning to `CNc1nc(N2CCN(CC3CC3)CC2)ncc1F`, the “% Inhibition” value came out at 9% and the Z score is -1.21.

With `CN(C)c1ccc(-c2noc(CCN)n2)cc1`, the “% Inhibition” value is -18% and the Z score came to 2.75.

For `NC(=O)COc1ccc(S(=O)(=O)NC[C@H](O)c2csc3ccccc23)cc1`, the “% Inhibition” value is given as -14% and the Z score came to 1.74.

Take `COc1ccccc1C(=O)C(=O)NC1CC(C)(C)NC(C)(C)C1`: the “% Inhibition” value is given as -6% and the Z score is 0.73.

Consider `Cc1nccn1CCN(C)Cc1cc(C#CCO)cs1`, for which the “% Inhibition” value worked out at 3% and the Z score is listed as -0.44.

Consider `COc1ccc(CCN2CC(=O)N(c3ccccc3)C3CS(=O)(=O)CC32)cc1` (stereo unspecified), for which the “% Inhibition” value is recorded as -2% and the Z score is 0.25.

Regarding `COc1ccc(N2CCN(C(=O)/C(=C/c3ccccc3Cl)c3ccccc3)CC2)cc1`, the “% Inhibition” value was -15% and the Z score is 2.04.

Take `Cc1nc(N2CC[C@@H](O)C2)ncc1-c1cc2c(cc1CO)OCO2`: the “% Inhibition” value was -1% and the Z score was found to be 0.13.

As for `CCCNC(=O)N(C)CC(=O)N1N=C(c2ccc(C)c(C)c2)C[C@H]1c1ccc2c(c1)OCO2`, the “% Inhibition” value is on record as -6% and the Z score came to 0.71.

For `O=C(CCC1CCCCC1)N1CCN(c2cc(-n3ccnc3)ncn2)CC1`, the “% Inhibition” value is recorded as -13% and the Z score was found to be 2.21.

Take `O=C1NC2(CCCC2)C(=O)N1C[C@H](O)CN1CCOCC1`: the “% Inhibition” value was -11% and the Z score is on record as 0.96.

With `CCn1cc(-c2nc(-c3ccccc3)no2)c(=O)c2cc(F)c(N3CCCCC3)cc21`, the “% Inhibition” value is -9% and the Z score is recorded as 1.55.

For the compound `O=C(Nc1ccc(OC[C@H]2CCCCO2)cc1)N1CCOCC1`, the “% Inhibition” value is listed as -12% and the Z score was 1.76.

`CN1CCC(=C2c3cc(Cl)ccc3OCC2(C)C)CC1`: the “% Inhibition” value amounted to 0% and the Z score is listed as -0.02.

For `CN1CCN(C(=O)Cn2ccc(NC(=O)[C@H]3CC[C@@H](c4ccccc4)O3)n2)CC1`, the “% Inhibition” value was -4% and the Z score is on record as 0.45.

In the case of `CCn1cc(S(=O)(=O)N2CC[C@H](c3nc(CCOc4cccc(C)c4)no3)C2)cn1`, the “% Inhibition” value is given as -11% and the Z score is 1.34.

Consider `Cn1ccc(NC(=O)CCC2CCCCC2)n1`, for which the “% Inhibition” value is reported as -3% and the Z score was 0.28.

Take `CNC(=O)[C@@H]1CCCCN1Cc1cc2cc(F)ccc2n1C`: the “% Inhibition” value is recorded as -20% and the Z score came out at 2.12.

For `CN(C[C@H]1CCS(=O)(=O)C1)C(=O)CC(C1CCC1)C1CCC1`, the “% Inhibition” value was -8% and the Z score is reported as 1.42.

Turning to `O=S(=O)(c1ccccc1Cl)N1CC(n2nccn2)C1`, the “% Inhibition” value is -29% and the Z score came out at 3.28.

As to `O=C(c1ccc(O)nc1)N1CCC[C@H]1c1nc2ccccc2s1`, the “% Inhibition” value is given as -21% and the Z score worked out at 2.5.

With `COCCO[C@H]1[C@H](NC(=O)C(C)C)c2ccccc2C12CCN(C(=O)c1cccc(F)c1F)CC2`, the “% Inhibition” value is recorded as -10% and the Z score is given as 2.07.

As for `O=S(=O)(N[C@@H]1COCC[C@@H]1OCC1CC1)c1ccc2c(c1)OCCO2`, the “% Inhibition” value is on record as -2% and the Z score is recorded as 0.28.

Turning to `CC(=O)N1CCN(c2c(C)cnc3c2c(=O)n(CC(=O)Nc2ccc(F)cc2)c(=O)n3C)CC1`, the “% Inhibition” value is -3% and the Z score amounted to 0.44.

On to `CCNC(=O)[C@H]1CCCN(c2nc3ncn(CC(=O)NC4CCCCC4)c(=O)c3s2)C1`, for which the “% Inhibition” value was -23% and the Z score was found to be 2.07.

For the compound `Cc1ccc(C)c2c(=O)c3c([nH]c12)CCN(CC(=O)Nc1ccccc1F)C3`, the “% Inhibition” value is on record as -12% and the Z score was 1.31.

As for `C[C@H](NC(=O)COCC(=O)Nc1ccccc1)c1ccccc1`, the “% Inhibition” value came to 10% and the Z score was -1.21.

For the compound `O=C(NC[C@H]1CCCN1CC(F)F)Nc1ccn2ccnc2c1`, the “% Inhibition” value is reported as -11% and the Z score is recorded as 1.34.

As for `Cc1cnc(CN2CCCC[C@H]2C(=O)Nc2cc(F)cc(F)c2)cn1`, the “% Inhibition” value is given as -16% and the Z score is listed as 2.56.

Take `O=C(Nc1nc2c(s1)CN(C(=O)c1cc(-c3ccccc3)on1)CC2)c1cccs1`: the “% Inhibition” value was -26% and the Z score was 3.83.

As to `CN1c2cc(F)ccc2C(=O)NC12CCN(C(=O)NC1CCCCC1)CC2`, the “% Inhibition” value is recorded as -7% and the Z score is on record as 0.9.

In the case of `CCc1nnc(NC2CCCCC2CO)nc1CC` (stereo unspecified), the “% Inhibition” value was -8% and the Z score stood at 1.31.

As for `CC(C)(NC(=O)CCc1ccsc1)c1nnc2n1CCCC2`, the “% Inhibition” value was -13% and the Z score was 1.68.

Consider `COCCC1(NC(=O)C2CCOCC2)CCN(C(=O)[C@H](C)c2ccccc2)CC1`, for which the “% Inhibition” value is reported as -15% and the Z score worked out at 1.91.

Take `CC(C)(C)OC(=O)N1CCC2(CC1)CC(C#N)C2`: the “% Inhibition” value turned out to be 30% and the Z score is -3.85.

`Cc1nc2ccccn2c1CN(C)C(=O)[C@@H]1CCCN1S(C)(=O)=O`: the “% Inhibition” value is 16% and the Z score is reported as -2.15.

With `Cc1nn(C)c(Cl)c1C(=O)N(C)Cc1ccco1`, the “% Inhibition” value is reported as -6% and the Z score was 0.73.

As to `COC(=O)c1cc2n(n1)C[C@@](C)(C(=O)NC1CCC(C)CC1)N(c1cc(Cl)ccc1C)C2=O` (stereo partly specified), the “% Inhibition” value was 18% and the Z score is -2.09.

With `CCc1noc(C)c1Cn1nc(C(F)(F)F)ccc1=O`, the “% Inhibition” value is -2% and the Z score is recorded as 0.23.

Take `O=C(O)c1cc(N2CCC[C@H](c3ccn[nH]3)C2)nc2ccccc12`: the “% Inhibition” value is listed as -11% and the Z score amounted to 1.25.

Turning to `O=C(C[C@@H]1NC(=O)N(Cc2ccc3c(c2)OCO3)C1=O)N1CCN(c2ccccn2)CC1`, the “% Inhibition” value is reported as -2% and the Z score is listed as 0.36.

As for `C[C@@H](Cc1ccncc1)NC(=O)c1ccncc1O`, the “% Inhibition” value is listed as -1% and the Z score worked out at 0.07.

Turning to `CC1CCN(S(=O)(=O)c2ccc(CNC(=O)c3ccc(F)cc3)s2)CC1`, the “% Inhibition” value is on record as -19% and the Z score was 1.9.

On to `CC[C@H](C)[C@H](NC(=O)C1Cc2ccccc21)C(=O)O` (stereo partly specified), for which the “% Inhibition” value is recorded as 3% and the Z score is given as -0.66.

On to `CC1(C)COCCN1C(=O)c1cccc2[nH]ccc12`, for which the “% Inhibition” value is recorded as 2% and the Z score is on record as -0.24.

Regarding `COc1ccc(OC)c(C(N2CCOCC2)N2CCOCC2)c1`, the “% Inhibition” value was -2% and the Z score amounted to 0.43.

In the case of `COc1cccc(NC(=O)c2cn(Cc3noc(C)n3)nn2)c1`, the “% Inhibition” value is -1% and the Z score came to 0.29.

As for `CCN(CC)Cc1cnc2c(C(=O)N3C[C@@H](C)O[C@@H](C)C3)cnn2c1`, the “% Inhibition” value was -16% and the Z score is recorded as 2.86.

As for `Cc1ccc2c(c1)N(C(=O)c1ccc(OC(F)F)cc1)CCCO2`, the “% Inhibition” value is listed as 0% and the Z score is -0.06.

For the compound `Cn1ncc2ccc(C(=O)NC3CC3)cc21`, the “% Inhibition” value is on record as -19% and the Z score came to 2.91.

For the compound `C[C@@H](CO)Nc1ncc(Cl)cc1Cl`, the “% Inhibition” value is reported as -9% and the Z score stood at 1.29.

Consider `COCCNC(=O)CCC(=O)NC1CCCC(C)C1C` (stereo unspecified), for which the “% Inhibition” value is recorded as -9% and the Z score was 0.93.

As to `O=C(Nc1cccnc1)c1ccc(-c2ccc(Cl)c(Cl)c2)o1`, the “% Inhibition” value was 64% and the Z score is -16.5.

On to `Cc1c[nH]c([C@H](C)NC(=O)c2n[nH]c(=O)c3ccccc23)n1`, for which the “% Inhibition” value was -2% and the Z score is reported as 0.31.

`COCC(=O)Nc1cc(C(=O)N2C[C@@H](C)O[C@@H](C)C2)c2c(c1)ncn2Cc1ccc(F)cc1`: the “% Inhibition” value came to 14% and the Z score was -1.76.

In the case of `CC(=O)N1CCCN(c2nc(N)ncc2C)CC1`, the “% Inhibition” value is given as -3% and the Z score amounted to 0.68.

For the compound `CC(=O)c1csc(NC(=O)[C@@]2(C)CC2(Cl)Cl)n1`, the “% Inhibition” value worked out at 5% and the Z score was -0.81.

For the compound `COC[C@H]1CCCN(S(=O)(=O)N2CCCN(C3CCCCC3)CC2)C1`, the “% Inhibition” value was -2% and the Z score worked out at 0.38.

For `FC(F)(F)c1nnc(NCc2ccc(Cn3cccn3)cc2)s1`, the “% Inhibition” value was -2% and the Z score is given as 0.35.

Turning to `COC(=O)N1CCc2ccc(F)cc2[C@@H]1C(=O)Nc1ccccc1C`, the “% Inhibition” value was -3% and the Z score is 0.53.

As to `CCCNC(=O)CCC(=O)NC(c1cccs1)c1cccs1`, the “% Inhibition” value was -1% and the Z score amounted to 0.2.

As to `C[C@H]1CN(S(=O)(=O)c2ccc(NC(=O)c3cc(-c4ccccc4)on3)cc2)c2ccccc2O1`, the “% Inhibition” value was 0% and the Z score is reported as -0.03.

Regarding `O=C1CN(C2CC2)Cc2cccc(c2)Oc2cccc(c2)CO[C@H]2CN(C(=O)CCn3cncn3)C[C@@H]2N1`, the “% Inhibition” value is listed as -7% and the Z score stood at 1.29.

As to `CCc1cccc(OC2CN(c3cc(C(=O)NC4CC4)ccn3)C2)c1`, the “% Inhibition” value is -10% and the Z score is reported as 2.03.

On to `COc1ccc(CN2C[C@H]3CC[C@@H](C2)N(CC=C(C)C)C3)cc1CN(C)C`, for which the “% Inhibition” value is given as -17% and the Z score was 1.87.

Consider `Cc1ccc(CN(CCO)C(=O)c2cc3cccn3cn2)o1`, for which the “% Inhibition” value is -2% and the Z score was 0.33.
